Measured values from the supplement of paper PMC4967469.
pIC50: −log10 of the molar value. Lines with a small IC50 respond at low doses; a fit beyond the top or the lowest dose is shown as a bound at that dose. AUC sums up the same curve from the lowest dose to the 256-fold higher top dose; the more sensitive the line, the further below 1. For some assays here: An inferred top dose was derived from the fitted curves, not read from the paper. For some assays here: Drugs with an entry number were screened twice under separate entries, and the two screens often disagree.

Assays:
Assay in all cases: Viability of human cancer cell lines after 72 h of drug (GDSC screen)
Belinostat = compound: O=C(/C=C/c1cccc(S(=O)(=O)Nc2ccccc2)c1)NO [Belinostat]; settings: top dose 20 µM; top dose inferred
Description: (§1)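 Human cancer cell lines in 384-well plates, medium with 10% serum, drug for 72 h over a 256-fold dose range (nine 2-fold or five 4-fold steps up to the top dose). Adherent lines were fixed and stained with the nucleic acid dye Syto60, suspension lines read with resazurin; signal relative to control wells, capped at 0 and 100%. One two-parameter sigmoid per drug and line, fitted in a mixed model over all curves with the slope shared within a line.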

SB-715992 = compound: Cc1ccc(C(=O)N(CCCN)[C@@H](c2nc3cc(Cl)ccc3c(=O)n2Cc2ccccc2)C(C)C)cc1 [SB-715992]; settings: top dose 0.128 µM; top dose inferred
Description: as §1

JQ1 = compound: Cc1sc2c(c1C)C(c1ccc(Cl)cc1)=N[C@@H](CC(=O)OC(C)(C)C)c1nnc(C)n1-2 [JQ1]
Description: as §1

JNJ-26854165 = compound: c1ccc2c(CCNc3ccc(Nc4ccncc4)cc3)c[nH]c2c1 [JNJ-26854165]; settings: top dose 10 µM
Description: as §1

OSI-906 = compound: C[C@]1(O)C[C@@H](c2nc(-c3ccc4ccc(-c5ccccc5)nc4c3)c3c(N)nccn32)C1 [OSI-906]; settings: top dose 2.56 µM; top dose inferred
Description: as §1

FTI-277 = compound: COC(=O)[C@H](CCSC)NC(=O)c1ccc(NC[C@@H](N)CS)cc1-c1ccccc1 [FTI-277]; settings: top dose 1.024 µM; top dose inferred
Description: as §1

NSC-207895 = compound: CN1CCN(c2ccc([N+](=O)[O-])c3no[n+]([O-])c23)CC1 [NSC-207895]; settings: top dose 20 µM; top dose inferred
Description: as §1

YM155 = compound: COCC[n+]1c2c(n(Cc3cnccn3)c1C)C(=O)c1ccccc1C2=O [YM155]; settings: top dose 5.12 µM
Description: as §1

[1] = top dose 1 µM, screen: GDSC drug entry 1218, top dose inferred
[2] = top dose 2.56 µM, screen: GDSC drug entry 163

For H2818 (mesothelioma, adherent), which AUC (Belinostat) is on record?
The AUC was 0.789.

What about the pIC50 (Belinostat) of the same cell line?
Its pIC50 is 5.04.

And the AUC (SB-715992)?
Its AUC is 0.989.

What about the pIC50 (SB-715992) of the same cell line?
Its pIC50 is under 6.89.

What about the AUC (JQ1; [1]) of the same cell line?
The AUC was 0.988.

And the pIC50 (JQ1; [1])?
The pIC50 was under 6.00.

And the AUC (JQ1; [2])?
Its AUC is 0.489.

And the pIC50 (JQ1; [2])?
The pIC50 was 6.83.

And the AUC (JNJ-26854165)?
Its AUC is 0.965.

And the pIC50 (JNJ-26854165)?
Its pIC50 is under 5.00.

What about the AUC (OSI-906) of the same cell line?
The AUC was 0.983.

And the pIC50 (OSI-906)?
Its pIC50 is under 5.59.

And the AUC (FTI-277)?
Its AUC is 0.966.

What about the pIC50 (FTI-277) of the same cell line?
Its pIC50 is under 5.99.

What about the AUC (NSC-207895) of the same cell line?
The AUC was 0.989.

And the pIC50 (NSC-207895)?
The pIC50 was under 4.70.

And the AUC (YM155)?
Its AUC is 0.775.

What about the pIC50 (YM155) of the same cell line?
Its pIC50 is 5.68.

Which AUC (Belinostat) does the source give for BICR31 (head and neck, adherent) here?
Its AUC is 0.625.

And the pIC50 (Belinostat)?
Its pIC50 is 5.56.

And the AUC (SB-715992)?
The AUC was 0.968.

And the pIC50 (SB-715992)?
Its pIC50 is under 6.89.

And the AUC (JQ1; [2])?
Its AUC is 0.831.

What about the pIC50 (JQ1; [2]) of the same cell line?
The pIC50 was 5.79.

What about the AUC (OSI-906) of the same cell line?
The AUC was 0.947.

And the pIC50 (OSI-906)?
Its pIC50 is under 5.59.

And the AUC (FTI-277)?
The AUC was 0.972.

What about the pIC50 (FTI-277) of the same cell line?
The pIC50 was under 5.99.

And the AUC (NSC-207895)?
The AUC was 0.921.

What about the pIC50 (NSC-207895) of the same cell line?
The pIC50 was under 4.70.

What about the AUC (YM155) of the same cell line?
The AUC was 0.034.

What about the pIC50 (YM155) of the same cell line?
Its pIC50 is over 7.70.

Which results are given for YMB-1-E (breast, adherent)?
AUC (Belinostat): 0.681; pIC50 (Belinostat): 5.31; AUC (SB-715992): 0.961; pIC50 (SB-715992): < 6.89; AUC (NSC-207895): 0.971; pIC50 (NSC-207895): < 4.70; AUC (YM155): 0.297; pIC50 (YM155): 7.16

Which results are given for SNU-1040 (large intestine, adherent)?
AUC (Belinostat): 0.758; pIC50 (Belinostat): 5.04; AUC (SB-715992): 0.753; pIC50 (SB-715992): 7.25; AUC (JQ1; [1]): 0.944; pIC50 (JQ1; [1]): < 6.00; AUC (NSC-207895): 0.788; pIC50 (NSC-207895): 4.91; AUC (YM155): 0.507; pIC50 (YM155): 6.47

For MKN45 (stomach, adherent), which AUC (Belinostat) is on record?
Its AUC is 0.867.

What about the pIC50 (Belinostat) of the same cell line?
Its pIC50 is under 4.70.

And the AUC (SB-715992)?
Its AUC is 0.89.

And the pIC50 (SB-715992)?
Its pIC50 is under 6.89.

And the AUC (JNJ-26854165)?
Its AUC is 0.874.

And the pIC50 (JNJ-26854165)?
The pIC50 was under 5.00.

And the AUC (OSI-906)?
Its AUC is 0.971.

What about the pIC50 (OSI-906) of the same cell line?
The pIC50 was under 5.59.

What about the AUC (FTI-277) of the same cell line?
Its AUC is 0.983.

And the pIC50 (FTI-277)?
The pIC50 was under 5.99.

What about the AUC (NSC-207895) of the same cell line?
Its AUC is 0.976.

And the pIC50 (NSC-207895)?
The pIC50 was under 4.70.

What about the AUC (YM155) of the same cell line?
Its AUC is 0.269.

What about the pIC50 (YM155) of the same cell line?
Its pIC50 is 7.24.

With “COR-L303 (small cell lung carcinoma, suspension)” as the cell line, how does the AUC (Belinostat) read?
The AUC was 0.1.

What about the pIC50 (Belinostat) of the same cell line?
Its pIC50 is over 7.11.

And the AUC (SB-715992)?
The AUC was 0.922.

What about the pIC50 (SB-715992) of the same cell line?
Its pIC50 is under 6.89.

And the AUC (NSC-207895)?
The AUC was 0.732.

And the pIC50 (NSC-207895)?
The pIC50 was 5.25.

And the AUC (YM155)?
Its AUC is 0.023.

And the pIC50 (YM155)?
The pIC50 was over 7.70.

SNU-475 (liver, adherent) was tested. Which AUC (Belinostat) did it give?
Its AUC is 0.356.

And the pIC50 (Belinostat)?
Its pIC50 is 6.28.

And the AUC (SB-715992)?
The AUC was 0.967.

What about the pIC50 (SB-715992) of the same cell line?
Its pIC50 is under 6.89.

And the AUC (JQ1; [2])?
The AUC was 0.988.

What about the pIC50 (JQ1; [2]) of the same cell line?
Its pIC50 is under 5.59.

What about the AUC (OSI-906) of the same cell line?
The AUC was 0.991.

What about the pIC50 (OSI-906) of the same cell line?
Its pIC50 is under 5.59.

And the AUC (FTI-277)?
The AUC was 0.991.

What about the pIC50 (FTI-277) of the same cell line?
The pIC50 was under 5.99.

And the AUC (NSC-207895)?
The AUC was 0.896.

What about the pIC50 (NSC-207895) of the same cell line?
The pIC50 was 4.71.

And the AUC (YM155)?
Its AUC is 0.198.

And the pIC50 (YM155)?
The pIC50 was 7.33.

What does the source list for WM278 (melanoma, adherent)?
AUC (SB-715992): 0.825; pIC50 (SB-715992): 7.04; AUC (JQ1; [1]): 0.978; pIC50 (JQ1; [1]): < 6.00; AUC (JQ1; [2]): 0.651; pIC50 (JQ1; [2]): 6.35; AUC (JNJ-26854165): 0.892; pIC50 (JNJ-26854165): < 5.00; AUC (OSI-906): 0.956; pIC50 (OSI-906): < 5.59; AUC (FTI-277): 0.983; pIC50 (FTI-277): < 5.99; AUC (NSC-207895): 0.976; pIC50 (NSC-207895): < 4.70; AUC (YM155): 0.386; pIC50 (YM155): 6.83

How did the AUC (Belinostat) turn out when KOSC-2 (head and neck, adherent) was run?
The AUC was 0.424.

And the pIC50 (Belinostat)?
The pIC50 was 6.12.

What about the AUC (JQ1; [1]) of the same cell line?
Its AUC is 0.978.

And the pIC50 (JQ1; [1])?
Its pIC50 is under 6.00.

And the AUC (JQ1; [2])?
The AUC was 0.546.

And the pIC50 (JQ1; [2])?
The pIC50 was 6.67.

What about the AUC (JNJ-26854165) of the same cell line?
Its AUC is 0.649.

What about the pIC50 (JNJ-26854165) of the same cell line?
Its pIC50 is 5.78.

What about the AUC (OSI-906) of the same cell line?
Its AUC is 0.979.

What about the pIC50 (OSI-906) of the same cell line?
Its pIC50 is under 5.59.

What about the AUC (FTI-277) of the same cell line?
The AUC was 0.971.

What about the pIC50 (FTI-277) of the same cell line?
The pIC50 was under 5.99.

And the AUC (NSC-207895)?
The AUC was 0.985.

And the pIC50 (NSC-207895)?
The pIC50 was under 4.70.

What about the AUC (YM155) of the same cell line?
Its AUC is 0.108.

And the pIC50 (YM155)?
The pIC50 was over 7.70.

Which results are given for SNU-175 (large intestine, suspension)?
AUC (Belinostat): 0.271; pIC50 (Belinostat): 6.53; AUC (SB-715992): 0.655; pIC50 (SB-715992): 7.68; AUC (NSC-207895): 0.886; pIC50 (NSC-207895): 4.70; AUC (YM155): 0.113; pIC50 (YM155): > 7.70

How did the AUC (Belinostat) turn out when Caov-3 (ovary, adherent) was run?
The AUC was 0.687.

What about the pIC50 (Belinostat) of the same cell line?
Its pIC50 is 5.41.

And the AUC (SB-715992)?
The AUC was 0.788.

What about the pIC50 (SB-715992) of the same cell line?
The pIC50 was 7.31.

And the AUC (JQ1; [2])?
The AUC was 0.949.

And the pIC50 (JQ1; [2])?
Its pIC50 is under 5.59.

What about the AUC (OSI-906) of the same cell line?
Its AUC is 0.991.

What about the pIC50 (OSI-906) of the same cell line?
Its pIC50 is under 5.59.

And the AUC (FTI-277)?
Its AUC is 0.985.

And the pIC50 (FTI-277)?
Its pIC50 is under 5.99.

What about the AUC (NSC-207895) of the same cell line?
The AUC was 0.927.

And the pIC50 (NSC-207895)?
The pIC50 was under 4.70.

What about the AUC (YM155) of the same cell line?
Its AUC is 0.151.

And the pIC50 (YM155)?
Its pIC50 is 7.49.
